± gives the standard deviation of the averaged measurements. The list shows a part of the results.
These sequences were tested on PfAP2-G AP2 domain (GST-tagged) (assay: gcPBM binding intensity (ln(normalized median fluorescence intensity)); higher = stronger DNA binding).
Summary of the method: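 GST-tagged P. falciparum DNA-binding domains produced in E. coli were incubated for 1 h on an Agilent 4 × 180k array of primer-extended double-stranded 36-bp intergenic genomic probes with negative controls. Binding intensity is the highest Masliner-normalised natural-log median intensity across replicate spots of either probe orientation, with bound protein detected by Alexa488 anti-GST antibody at 488 nm.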

| Sequence | gcPBM binding intensity (ln) |
| --- | --- |
| TTTAATTTTTTTAATTCACACATTATTCCATCCTTT [CACACA_site5480] | 9.945 ± 0.064 |
| AATAAATAAGCAACATGTACATACAAATATATACAT [XGTACX_site8529] | 11.2 ± 0.87 |
| TTATTCATATTATCATGTACTTATATATATTGTCAT [XGTACX_site2231] | 11.1 ± 0.86 |
| ACTAAAAGATATATAATTTCTTTCTTATTTATTTTT [CACACA_negctrl_site842] | 9.81 ± 0.071 |
| TAAAAAAAATAGTCAAGTACATAAGAAGGGAAGAAA [XGTACX_site8733] | 11 ± 0.59 |
| AAAAAAACATGAAACACACACAAATATTTATTTATA [CACACA_site6967] | 9.81 ± 0.071 |
| TGTTTCCAAAAAAAAAAAAAAAAAAAAAAAAAAAAA [CACACA_negctrl_site358] | 9.71 ± 0.38 |
| TTTTGTTTATTATGATTCAAAATGATTTTATCTTTG [TGCATGCA_negctrl_site425] | 9.73 ± 0.3 |
| TATTATATATATAAATGTACTTATTTTAATTCCCCT [XGTACX_site8638] | 11.3 ± 0.88 |
| ATTTTATTTTTTAAAGGTACAGTTACAGCTTATATA [XGTACX_site7513] | 11.1 ± 0.81 |
| GTACATATATACATTACACACGGTTTGATTTAAAAA [CACACA_site3379] | 10.8 ± 0.42 |
| ATATAATTAAAATGCTCACACACATAAAAAAAAATT [CACACA_site2148] | 10.1 ± 0.26 |
| CACATATATATGTGTGCATGTTGTATTATATATTTA [TGCATGCA_site632] | 10.4 ± 0.17 |
| ATAATTACAAAATAAACACACATATAGATTTATATG [CACACA_site6343] | 9.84 ± 0.16 |
| TACATAATACATATAACACACACAATTATACATAAA [CACACA_site9060] | 10.1 ± 0.15 |
| TCTTTTAAAAAAAAAGGAGGAACATAAAAAGTAGAA [XGTACX_negctrl_site272] | 10.4 ± 0.34 |
| AAAAATTTAAGTGGGGGTACATTTTTTTAACACCTT [XGTACX_site1093] | 11.6 ± 0.66 |
| AACAAACACGGACACACACACACACTAGAATGATTA [CACACA_site5364] | 11.3 ± 0.95 |
| AAAAAAAAAAAAATCACACATATGTATTTATATATA [CACACA_site5790] | 9.665 ± 0.049 |
| ATATTTAAATGTAATACATGCAAATTTGAACATTTT [TGCATGCA_site736] | 10.1 ± 0.25 |
| TAATATATTAACATGGGTACATATTATTTCATGTGT [XGTACX_site5985] | 11.1 ± 0.73 |
| AAATAAGAGCGTAGCACACACGCATTTTATAAATGT [CACACA_site741] | 10.1 ± 0.15 |

| Sequence | gcPBM binding intensity (ln) |
| --- | --- |
| TATCATTTTATTATTCTACACACTTATCTATAATTA [CACACA_site7894] | 9.93 ± 0.014 |
| TTTTTTTTTTTTTTTGCATGTTGTTTAATGTATTGT [TGCATGCA_site772] | 9.71 ± 0.37 |
| TTTTACAAAATAAAAATATAGAATACGGTAAATTAT [GTGCAC_negctrl_site40] | 10.02 ± 0.078 |
| TAAAAATGTGGACACACACACATATTTATATTTAAT [CACACA_site6827] | 11.4 ± 0.72 |
| TGTTGATGATATTACACACCCAATGAGAAAAGGAAT [CACACA_site2072] | 10.2 ± 0.17 |
| TTTTTTCCTTTTAATTGTACACAGATATAATATATT [XGTACX_site2230] | 11.3 ± 0.55 |
| AAATTTTATTATAGCAGTACAATATAATATTATTAA [XGTACX_site1971] | 10.8 ± 0.49 |
| ATATTTAAAGAATAAGTGCAAAATGTAATTAATTTT [GTGCAC_site9901] | 10.065 ± 0.007 |
| TATATTTTATAAAAAAGTACACATGAAAATGTATTT [XGTACX_site5889] | 11.5 ± 1.1 |
| TGTAGTCTGGAGAAACGTACACAGTATCTGGTAACA [XGTACX_site4938] | 11.5 ± 1.2 |
| AAAGGGGATATATGAACACACAAAAAAAAAATATAT [CACACA_site2896] | 10.1 ± 0.33 |
| TATTTATTACTATGTAAACACACATGCAATATATGT [CACACA_site8288] | 9.84 ± 0.028 |
| ATGCCCCATATAAACACACAAATAAAAAGAATATAC [CACACA_site7292] | 10.1 ± 0.11 |
| AAATATTTTTTTTCTACACACATACAAATATAGATT [CACACA_site7164] | 10.095 ± 0.007 |
| GTACTCTTCTCCAGACTGCACTATACGACTCGTACA [GTGCAC_site9770] | 11 ± 0.57 |
| ATATATATATATATATGTACTTATATATAATATAGA [XGTACX_site3488] | 11.2 ± 0.79 |
| ATTACATACACGCGCACACACAAAAAAAAAAAAAAA [CACACA_site1334] | 10.6 ± 0.66 |
| TGGTATGTTTTACAAAGTACCCATCGATTCTTATGT [XGTACX_site2822] | 10.9 ± 0.46 |
| AAAAAGTAGTAAAACAGTACAGTATTTATGCCTATT [XGTACX_site6434] | 10.8 ± 0.42 |
| AAAAAAAAAAAAAGTACACACTTTTGCGTACATGTA [CACACA_site7449] | 12 ± 0.98 |
| TATTTATTTATTTATTGTACATAAGTATATATTATA [XGTACX_site6566] | 10.9 ± 0.64 |
| GAACCACTAAAATGAGCATGCTCATATTTACATATA [TGCATGCA_site1033] | 9.885 ± 0.007 |

From the supplement of paper PMC11417369
